From PubChem BioAssay AID588342 (National Center for Advancing Translational Sciences (NCATS), 2011)
The campaign covered roughly 360,000 compounds. About 25,000 (6.9%) were called active. Inconclusive results, whose numbers are uncertain, are shown with a selection of clear calls. Calls come from the whole dose curve; as a rule, active = well fitted inhibition curve with a large enough effect; inconclusive = small, poorly fitted or top-dose-only effect; inactive = flat fitted curve, though single readings scatter. Where the call is inconclusive, the potency comes from a doubtful curve fit.

Target: Luciferin 4-monooxygenase (Photinus pyralis) (UniProt P08659)
Sequence of UniProt P08659 (P08659 whole entry, looked up): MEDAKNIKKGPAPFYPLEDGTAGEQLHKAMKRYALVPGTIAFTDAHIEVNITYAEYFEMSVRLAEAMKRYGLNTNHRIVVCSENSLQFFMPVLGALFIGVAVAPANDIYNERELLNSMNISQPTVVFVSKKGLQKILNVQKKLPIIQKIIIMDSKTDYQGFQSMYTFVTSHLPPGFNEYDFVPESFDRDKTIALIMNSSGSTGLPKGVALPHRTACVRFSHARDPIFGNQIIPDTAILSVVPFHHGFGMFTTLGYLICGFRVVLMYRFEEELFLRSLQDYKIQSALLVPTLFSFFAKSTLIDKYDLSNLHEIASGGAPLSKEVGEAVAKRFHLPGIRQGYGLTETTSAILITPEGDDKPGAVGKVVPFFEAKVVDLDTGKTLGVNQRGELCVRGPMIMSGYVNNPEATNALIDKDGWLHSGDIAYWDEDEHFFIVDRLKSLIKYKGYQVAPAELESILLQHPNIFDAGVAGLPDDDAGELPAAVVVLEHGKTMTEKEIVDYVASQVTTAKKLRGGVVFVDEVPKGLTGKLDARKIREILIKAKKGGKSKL
Assay: qHTS profiling assay for firefly luciferase inhibitor/activator using purifed enzyme and Km concentrations of substrates (counterscreen for miR-21 project); note: nearly all actives have a fitted effect of over 55% in size
Conditions: purified FLuc, luminescence inhibition; series mostly up to 57.5 µM
Method in brief: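 Biochemical qHTS of compounds, final roughly 60 µM downward over six points, against 10 nM purified firefly luciferase using Km concentrations of substrates (10 uM D-luciferin, 10 uM ATP) in Tris acetate pH 7.5 buffer; luminescence output.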
Potency is the fitted concentration of half-maximal effect; tags give direction and shape of the fitted curve.

Question: Which Potency does the source give for `CCOc1ccc(Nc2nc(Nc3ccc(OCC)cc3)nc(N3CCOCC3)n2)cc1` here?
Answer: inactive

Question: How did the Potency turn out when `COc1ccccc1NC(=O)c1c(C)oc2c1CCCC2` was run?
Answer: inconclusive: 19 µM [inhibitor, partial curve, poor fit]

Question: With `CCOc1ccc(-c2c(=O)n(O)c3ccccc3[n+]2[O-])cc1` as the molecule, how does the Potency read?
Answer: inconclusive: 16.9 µM [inhibitor, partial curve, poor fit]

Question: How did the Potency turn out when `Cc1ccc(NC(=O)Cc2noc3ccccc23)nc1` was run?
Answer: inconclusive: 37.9 µM [inhibitor, partial curve, poor fit]

Question: With `N/C(=N\OC(=O)CSc1ccccc1)c1ccncc1` as the molecule, how does the Potency read?
Answer: inconclusive: 26.9 µM [inhibitor, single point]

Question: `Cc1ccnc(NC(=O)c2oc3ccccc3c2C)c1` was tested. Which Potency did it give?
Answer: active: 1.2 µM

Question: How did the Potency turn out when `COc1ccccc1NC(=O)C1CCN(c2ncnc3c2nc2n3CCCCC2)CC1` was run?
Answer: inactive

Question: Which Potency does the source give for `O=C(N/N=C/c1ccc([N+](=O)[O-])cc1)c1[nH]ncc1Br` here?
Answer: inconclusive: 2.69 µM [inhibitor, full curve]

Question: How did the Potency turn out when `CCN(CC)C(=O)C1CCCc2c1[nH]c1ccc(Cl)cc21` (centres undefined) was run?
Answer: inactive

Question: `N#C/C(=N\Nc1cccc(Cl)c1)C(=O)c1ccccc1` was tested. Which Potency did it give?
Answer: inconclusive: 33.8 µM [inhibitor, single point]

Question: With `O=C(Nc1cc(Br)ccc1O)c1cc(-c2ccc3c(c2)OCO3)on1` as the molecule, how does the Potency read?
Answer: inconclusive: 2.69 µM [inhibitor, partial curve, poor fit]

Question: With `COc1ccccc1-c1nc(C#N)c(N2CCc3ccccc3C2)o1` as the molecule, how does the Potency read?
Answer: inconclusive: 26.9 µM [inhibitor, partial curve, poor fit]

Question: With `CC(Nc1nc(N2CCNCC2)nc2ccccc12)c1ccccc1` (centres undefined) as the molecule, how does the Potency read?
Answer: inactive

Question: `CC(Oc1ccc(Cl)cc1)C(=O)Nc1sccc1C(N)=O` (centres undefined) was tested. Which Potency did it give?
Answer: inconclusive: 23.9 µM [inhibitor, partial curve, poor fit]

Question: With `CC1CCC(NC(=O)CCc2cn(Cc3ccc(F)cc3)c3ccccc23)CC1` (centres undefined) as the molecule, how does the Potency read?
Answer: inconclusive: 10.7 µM [inhibitor, partial curve, poor fit]

Question: With `O=C(Nc1ccccc1C(=O)O)c1cccc(NC(=O)c2ccccc2Br)c1` as the molecule, how does the Potency read?
Answer: active: 23.9 µM

Question: For `Cc1ccccc1C(=O)NCc1ccc2c(c1)CCN2C(=O)c1ccc(F)cc1`, which Potency is on record?
Answer: inconclusive: 30.1 µM [inhibitor, partial curve, poor fit]

Question: `Cc1nn2c(=O)cc(COC(=O)COc3ccccc3C)nc2s1` was tested. Which Potency did it give?
Answer: inactive

Question: With `COc1cccc(-c2nc(-c3ccccn3)no2)c1OC` as the molecule, how does the Potency read?
Answer: active: 13.5 µM

Question: With `CC(=O)NNc1ncnc2c1cnn2-c1ccc(C)cc1` as the molecule, how does the Potency read?
Answer: inconclusive: 37.9 µM [inhibitor, partial curve, poor fit]

Question: With `O=C(Nc1ccc2nc(-c3ccco3)c(-c3ccco3)nc2c1)NC1CC1` as the molecule, how does the Potency read?
Answer: active: 6.01 µM

Question: How did the Potency turn out when `Cc1csc2c(N3CCN(C(=O)Nc4ccc(Cl)c(Cl)c4)CC3)ncnc12` was run?
Answer: inconclusive: 30.1 µM [inhibitor, partial curve, poor fit]

Question: With `CCS(=O)(=O)c1ccc(N=Nc2ccc(O)c3ncccc23)c(OC)c1` as the molecule, how does the Potency read?
Answer: inconclusive: 37.9 µM [inhibitor, partial curve, poor fit]

Question: With `CC1=NN(c2nc(-c3ccc(C)cc3)cs2)C(=O)C1N=Nc1cccc(C)c1` (centres undefined) as the molecule, how does the Potency read?
Answer: inconclusive: 26.9 µM [inhibitor, single point]

Question: How did the Potency turn out when `O=C(CCNc1n[nH]c(=O)[nH]c1=O)N/N=C\c1cccc(OCc2ccccc2)c1` was run?
Answer: inconclusive: 33.8 µM [inhibitor, single point]

Question: For `CC(=O)Nc1cccc(-c2csc(Nc3ccc(C)cn3)n2)c1`, which Potency is on record?
Answer: active: 0.426 µM

Question: `CN(C)c1ccc(/C=C2\C(=N)N3N=C(CC(=O)N4CCCC4)SC3=NC2=O)cc1Br` was tested. Which Potency did it give?
Answer: inconclusive: 26.9 µM [inhibitor, single point]

Question: For `Cc1ccnc(NC2c3ccccc3C(=O)N2Cc2ccccc2Cl)c1` (centres undefined), which Potency is on record?
Answer: inactive

Question: Which Potency does the source give for `Oc1cccc(C(=S)N2CCC(Cc3ccccc3)CC2)c1` here?
Answer: inconclusive: 26.9 µM [inhibitor, partial curve, poor fit]

Question: `O=C(COc1ccccc1)NC(=S)Nc1ccc2c3c(cccc13)CC2` was tested. Which Potency did it give?
Answer: inconclusive: 21.3 µM [inhibitor, partial curve, poor fit]

Question: How did the Potency turn out when `NNC(=O)c1cc(C23CC4CC(CC(C4)C2)C3)[nH]n1` was run?
Answer: inconclusive: 21.3 µM [inhibitor, single point]

Question: `CCc1ccc(S(=O)(=O)c2cnc(SCC(=O)Nc3ccc(OC)cc3OC)[nH]c2=O)cc1` was tested. Which Potency did it give?
Answer: inconclusive: 12 µM [inhibitor, partial curve]

Question: For `Cc1ccc(N2C(=O)C(CC(=O)Nc3ccccc3)N(CCC3=CCCCC3)C2=O)cc1` (centres undefined), which Potency is on record?
Answer: inconclusive: 30.1 µM [inhibitor, partial curve, poor fit]

Question: Which Potency does the source give for `COc1cccc(-c2nc3sc4c(c3c(=O)[nH]2)CCCCC4)c1` here?
Answer: active: 0.151 µM

Question: `COc1ccccc1NC(=O)Nc1cccc(C(=O)O)c1` was tested. Which Potency did it give?
Answer: active: 12 µM

Question: `CCOc1ccccc1N(CC)C(=O)c1cc2ccc3cccnc3c2[nH]1` was tested. Which Potency did it give?
Answer: inconclusive: 23.9 µM [inhibitor, partial curve, poor fit]

Question: With `COc1ccccc1/C=C/C(=O)NCc1ccccn1` as the molecule, how does the Potency read?
Answer: inactive

Question: With `O=C(CN1C(=O)NC2(CCCC2)C1=O)N1CCCSC1=Nc1ccccc1` as the molecule, how does the Potency read?
Answer: inactive

Question: With `Cc1cc(S(=O)(=O)Nc2ccccc2C(=O)O)ccc1Cl` as the molecule, how does the Potency read?
Answer: inconclusive: 21.3 µM [inhibitor, single point]

Question: With `CCC(C)c1ccc(OCC(=O)Nc2ccc(Cl)cn2)cc1` (centres undefined) as the molecule, how does the Potency read?
Answer: inconclusive: 16.9 µM [inhibitor, partial curve]

Question: Which Potency does the source give for `On1c(-c2ccccc2)nc2ccc(Cl)cc21` here?
Answer: active: 16.9 µM

Question: For `Cc1ccc(C(=O)Nc2ccc(S(=O)(=O)Nc3onc(C)c3C)cc2)cc1`, which Potency is on record?
Answer: active: 12 µM

Question: Which Potency does the source give for `O=C1OC(/C=C/c2ccccc2)=NC/1=C/c1ccco1` here?
Answer: inconclusive: 16.9 µM [inhibitor, partial curve]

Question: `COc1ccccc1-n1cc(C(=O)NCC(=O)N2CCN(c3ccccc3)CC2)c2ccccc2c1=O` was tested. Which Potency did it give?
Answer: active: 0.757 µM

Question: Which Potency does the source give for `COc1ccc(-c2cc(C(=O)Nc3cccc(O)c3)on2)cc1OC` here?
Answer: inconclusive: 37.9 µM [inhibitor, partial curve, poor fit]

Question: How did the Potency turn out when `COc1ccccc1/C=C1\SC(=O)N(CCC(=O)N(C)C2CCS(=O)(=O)C2)C1=O` (centres undefined) was run?
Answer: active: 16.9 µM

Question: For `O=C(Nc1ccc(NC(=O)C2CC2)nc1)c1cccc(F)c1`, which Potency is on record?
Answer: inconclusive: 16.9 µM [inhibitor, partial curve]

Question: Which Potency does the source give for `Cc1ccc(CN2CCNC(=O)C2CC(=O)N(C)CCc2cnn(C)c2)cc1` (centres undefined) here?
Answer: inactive

Question: `CCCC(=O)NNC(=O)CC(=O)Nc1ccccc1C(=O)O` was tested. Which Potency did it give?
Answer: inactive

Question: With `Oc1c(C=Nc2cccc3nsnc23)ccc2ccccc12` as the molecule, how does the Potency read?
Answer: active: 1.69 µM

Question: How did the Potency turn out when `CCN(CC)CCN(C(=O)c1ccco1)c1nc2cc(C)cc(C)c2s1` was run?
Answer: inactive

Question: Which Potency does the source give for `Cc1ccc(C(=O)Nc2cc3c(oc2=O)CCCC3=O)cc1` here?
Answer: active: 21.3 µM

Question: With `CSCc1ccc(C(=O)Nc2cc(C)cc(C)c2)cc1` as the molecule, how does the Potency read?
Answer: active: 2.13 µM

Question: For `O=C(CSc1ccc(Br)cc1)Nc1cccc(S(=O)(=O)N2CCOCC2)c1`, which Potency is on record?
Answer: inconclusive: 37.9 µM [inhibitor, partial curve, poor fit]

Question: How did the Potency turn out when `N#Cc1c(-n2ncnc2-c2ccccc2C(F)(F)F)sc2c1CCCCC2` was run?
Answer: active: 0.239 µM

Question: Which Potency does the source give for `Cc1cccc2cc(COC(=O)C3CCCO3)c(=O)[nH]c12` (centres undefined) here?
Answer: inconclusive: 30.1 µM [inhibitor, partial curve, poor fit]

Question: For `CC1CCCCN1C(=O)c1cc2c(=O)n3ccccc3nc2s1` (centres undefined), which Potency is on record?
Answer: inconclusive: 23.9 µM [inhibitor, single point]

Question: `O=C1N=C(N2CCN(c3ccccc3)CC2)S/C1=C/c1cccs1` was tested. Which Potency did it give?
Answer: inconclusive: 19 µM [inhibitor, partial curve]

Question: Which Potency does the source give for `COc1ccc(C(=O)Nc2ccc(C3(C#N)CCCC3)cc2)cc1` here?
Answer: active: 4.78 µM

Question: For `Cc1nc(N)sc1C(=O)Nc1ccccc1`, which Potency is on record?
Answer: inconclusive: 23.9 µM [inhibitor, single point]

Question: `C/C(Cc1ccccc1)=N\NC(=O)CNC(=O)c1ccccc1O` was tested. Which Potency did it give?
Answer: inconclusive: 23.9 µM [inhibitor, partial curve]

Question: Which Potency does the source give for `COc1cc(Cl)c(CN2CCCC(CO)(Cc3cccc(Cl)c3)C2)cc1OC` (centres undefined) here?
Answer: inactive

Question: How did the Potency turn out when `O=C(c1ccc(CNS(=O)(=O)c2ccc(Br)cc2)cc1)N1CCCC1` was run?
Answer: inactive

Question: How did the Potency turn out when `COc1ccccc1CCNC(=O)Cc1c(C)c2cc3c(C)coc3cc2oc1=O` was run?
Answer: inactive

Question: How did the Potency turn out when `O=c1oc2cc(OCc3nn[nH]n3)ccc2c2c1CCCC2` was run?
Answer: inconclusive: 26.9 µM [inhibitor, partial curve, poor fit]

Question: With `O=C(Nc1ncccc1O)c1ccc(Cl)c(S(=O)(=O)N2CCCCCC2)c1` as the molecule, how does the Potency read?
Answer: inconclusive: 37.9 µM [inhibitor, partial curve, poor fit]

Question: How did the Potency turn out when `Cc1ccc(C(=O)N2CCN(C)CC2)cc1S(=O)(=O)N1CCCCCC1` was run?
Answer: inactive

Question: `C1CCN=C(Nc2nc3c(s2)CCCC3)CC1` was tested. Which Potency did it give?
Answer: inconclusive: 19 µM [inhibitor, partial curve]

Question: With `Cc1ccc(CNC(=O)c2c(C)oc3nc(C)nc(N4CCOCC4)c23)cc1` as the molecule, how does the Potency read?
Answer: inactive

Question: For `O=S(=O)(NCc1cn2ccccc2n1)c1cccs1`, which Potency is on record?
Answer: inconclusive: 23.9 µM [inhibitor, partial curve, poor fit]

Question: `O=C(NCCC1=CCCCC1)c1ccc(Cl)cc1` was tested. Which Potency did it give?
Answer: active: 1.35 µM

Question: How did the Potency turn out when `CN1CCN(c2ccc(-c3cccc(NC(=O)COc4ccccc4)c3)nn2)CC1` was run?
Answer: active: 1.51 µM

Question: Which Potency does the source give for `O=C(NCCc1ccccc1)c1c(F)cccc1F` here?
Answer: active: 16.9 µM

Question: With `O=[N+]([O-])c1cccc2c(N3CCCC3)ccnc12` as the molecule, how does the Potency read?
Answer: inconclusive: 26.9 µM [inhibitor, partial curve, poor fit]
